In all, about 2,700 sequences were measured (“arbitrary fluorescence units”: median about 4,100, highest 2% from about 54,000 on). Some of the results follow.
These sequences were tested against T1, ETS1 (UniProt P14921) (assay: ETS1 binding intensity (PBM fluorescence) (arbitrary fluorescence units); higher = stronger binding). Settings: ETS1 concentration 10 nM.
T1 sequence: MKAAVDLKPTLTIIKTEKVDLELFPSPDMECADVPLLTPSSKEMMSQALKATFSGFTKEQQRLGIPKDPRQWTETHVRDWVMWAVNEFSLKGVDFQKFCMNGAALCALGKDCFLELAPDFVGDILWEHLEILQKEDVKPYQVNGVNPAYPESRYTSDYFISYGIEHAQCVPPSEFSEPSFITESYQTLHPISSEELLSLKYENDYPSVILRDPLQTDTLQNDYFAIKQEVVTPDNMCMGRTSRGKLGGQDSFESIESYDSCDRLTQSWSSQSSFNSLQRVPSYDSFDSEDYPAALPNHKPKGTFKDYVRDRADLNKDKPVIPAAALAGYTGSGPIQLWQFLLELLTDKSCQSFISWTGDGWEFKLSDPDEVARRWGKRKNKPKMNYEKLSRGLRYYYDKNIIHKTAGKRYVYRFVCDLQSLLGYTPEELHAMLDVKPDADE
Experimental: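 gcPBM on wild-type 36-bp genomic probes with two neighbouring ETS1 sites (4-24 bp apart). Recombinant human ETS1 (10 nM) was detected with anti-ETS1 antibody fluorescence. Values are medians over 3 replicate spots. The probes sit in constant array flanks that are not printed.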

Sequence | ETS1 binding intensity
CGGCGCGGGCGCGGAAGGCAGGAAGTGCCGCGGCGC | 3380
TTTGTTCCCCTTCCTGACTCACTTCCTGCCAGTGAT | 10000
TTTGCCAGGAAAACAACTTCAGGCAGGAAATGACCA | 852
TCTTCTCCATCCGTTGGAGACACCGGAAACGCGCTG | 7140
ATGGTAGATAACATCCGCCCCATCCGCTGGTCCCAT | 11300
GATGCAGGAAGTGAGACAAACATCTGCTTCCTGCAG | 11200
GCTGGAGGAAACAGGGCTGACACCACAGGAAACCTG | 362
CCGGGCCGTGGCAGGAAGCCGGAAGCAGCCGCGGCC | 5680
TCCTGCCTCAGGATGCCGGGGGAGGAAGAGGAGCGG | 258
CGCTGAACTTCCCGAGCTCGGGGTGGGATGTGGCCG | 734
TGTACTTTAGGCTTCCTCTCAGGAAGTTCGGATTGA | 1120
AAGAAGCGGAAGAGGAAGCTGGATAAGTCCGCCGCC | 3490
ATTGAACTTCCTTCGCTCGGGCCCATTTCCTCAGCT | 5210
GTATGTGTCTTCCGGCCAGCTCTCTTCCTGCTTCTG | 12900
AACTCATTTCCTGAAGAAGCCCAGAGGAAACCGAGA | 12800
ACATAACAGGAAATTTCAAATAACAGGAAACCAAGA | 6000
GTGCAGGATGCAGTTGCAAAGGAGCGCTTCCGATCG | 1100
AAGGCCCAGGAAGCCACTGCTGCAGGAAGTGTCCTG | 752
CCACTGTGGCTAAGGAAACAGGAAGCTGCCTCTCCT | 1620
TGCCCAGGAAGGCCTCATGGCGGTACCGGAAGCTCC | 929
TTCCAAAGCTGTTTCCTTACTTCCCTTTGTTGCTAT | 639
CCTCAACTTCCTGGGCTCAAGTGGTTTTCCTGCCTC | 13000
GCGCGGGACTCGGTTCCGCGGAAATCGGAAATCGAA | 188
GGTAGGGCTTCCGCCCGGGGCTGCTTCCGGCCTCGG | 17100
GCAATAAAGGAAATGAGTAGGATTTTCCTGTGTTTT | 2430

Sequence | ETS1 binding intensity
CTAACGGTTTCCTCTGGGTAAGCACTTCCGCCCTCC | 7030
TATGTATTTCCTTATTGCAAAGGGCGGAAACGTGTA | 3980
CAAGCGGAAGTGGGGCTGCGCTGGCGCTTCCTCTTC | 11700
AGCGGAAACTACGGAAACATAGGAAAAGGGCTGACT | 1280
CCGGAGACATCCGCCCAGGCCCGCTTCCGGGAGGAA | 15300
CCCACTTCCTGCCTCACCCTGAAGATCTTCCGGGCA | 56900
GGAAAGACGGCAGGAAATGGGGAAGTGGGAGGGAGA | 6220
ATGCCAGGAAACAACAGATGCTGGAGAGGATGTGGA | 429
TCATTAGGCGGAAAGCGAAACCCGGAAGTGACGCTC | 4240
AACACTTCCTCTGCCTTGCAATGGGAGAGGAAGTAA | 15700
GCCCACATCCGGGGCCCAGAGCGCCGCGGAAACGCC | 48700
ACCACCTGGACAGGAAGACAGGATGTGAACTTCAGA | 4170
TTAACTCCTGGACTTCCGCTTCCGGGGTGCCCAGGC | 24900
GACGGACACCCGTTTCCGCTTCCGGGTCACGCTTCT | 20900
ACTTGACCCGGAACCATCAGCTGTTTCCTTTCACCT | 272
GCGCGCCACTTCCGACCTGTGCCGGAAAAGCCCATA | 8270
GTCACTTCCGGCGCCCGCCTACACGCACTTCCGTTC | 88200
TAACAGGAAGCATGACTGGGAGGCCTCAGGAAACTT | 2750
AGTTTGAAGGCTCCGGAACTTCCGTCCTGGGAGGTT | 2920
TTTAGTTCTCTTCCTGTTTGTACATCCTTGTGGTAA | 14100
TCCCCAGGAAAGGAGGAGGGTGGGCCGGAAGAAAGG | 295
AGTTCAGAGGCCGGAAGCCCAGGAAGAGAGGGACAC | 6000
TGTCAGGAAGCCACAGGGGGAGTGTGGCTTCCTGAG | 352
CCGGCACTTCCGGCAGGCCAGGGCACTTCCGGGACC | 58000
CTCTGGCATATCAGGAAATAGGAAATGATCTCACCA | 1170

Sequence | ETS1 binding intensity
GCCCTATCAGCACATCCGCAGGAAACACCTGCAGAA | 4750
CCAACAGGATTTAAACAGGCGGTGACAGGAAGGGGG | 320
GCCCCAGCTTCCGGCCTCCGGCGGCTTCCGCGTCGC | 52900
ATTTGAAGAGCCAGGAAGGAGGAAATGCAGAGTGCA | 287
CCAAGCTGCGAAGCTTCCTTCCTGTCTTGAGGTTTC | 3950
AAGCAGGAGGAAACCGGCATGTCACTTCCTCTGCAG | 1290
ATCTGTCAAGGAGCTTCCTTCCGTTTGTGGTTTCAT | 1090
GGGAGGAAGCGCCCCGAGGAGGGTCAGCGGAACACA | 293
CGGGAGGAAGTCGGGCTCGCCGCCTGCCATCCGCGG | 1040
CAGACCCGGAAGCCACTTACAGTAACTTCCGGCGAG | 14400
CATTTACTTCCTTGCCTGTTGCGGCCTTCCTGGCTG | 5400
CCACCTTCCTGCCTCATCAACTCACACCGGATTGAT | 7700
ATGAGGAAGCAGAAACTATGAGTAAACAGGAAGCTT | 383
TGTAGGAGCTTCCTTGCAGCCTCAGGATGCCGAATT | 517
ACGACAAGGAAGCTGAGTCAGAGAGAGGAAGTATGA | 249
CTAAGATACAGGATGCCCTTACTTCCTGTCTGTGGC | 11900
CCCTGCGACTGACATCCTGCTTCCTGTGCTGCGTTT | 13500
CGCGCGCAGTTTCCTGGAGACCCGGAAGCAGATTAC | 5800
ATGTAAAGAGGAAGTGACTCATTCTTCCTGGTGGTG | 3720
AGGGACCGGAACTGAATGGGAGTACCGGAAGTGCCC | 16100
CACCCCACCGTTTCCTGTACCAGGAAGCTGAGGCCC | 20600
ACCTCCCGGGACTTCCGGCCGGAAACCAAGGCCCCA | 41300
CGTCAGAGCAGGAAGTGTTTGAGGAAGTCGCGCCGC | 5390
ATGGAGAGGAAGCCACAGGGTTGACAGGAAACCAGA | 699
ATAAACAATGAGGAAGCCAGTTTCCTGTTTGGGTTG | 4970

Sequence | ETS1 binding intensity
TGGACGGAAGTCACTTCTGAGAAGGGCGGAAGTGTC | 5130
CGCGGCCTTTCATTTCCGCTTCCGGTGCGGGCCGCG | 32900
GGATGCGGAAGGTAAGGGCTGCAGGCTTCCGGGCCG | 918
CGGGACCGAGGGAGGAAGTCGGAAACTGGTGGCCGC | 1010
TGCAGGCAATGTTTCCTGCCAGGATGTTGATCAAAG | 4960
CAAGCTCAGGAAGAAGCCACAGCCGGAAGTTCACCT | 3010
TGCATTTCCTCCCCTCAGGTTATTCCCTTCCGTTGC | 15300
TCCCTGCCTGGCTTCCTGGCATCCTGCCTCTAACCT | 4480
GTCGAGGCTTCCCGTCGCCGGCACTTCCTCTTGCGG | 3860
GGAACGGAAGCCGGGAGGGAACGAGGGCGGAAGCGG | 3190
CGTCCGGATGCCCCTCCCGGCCGCCTCTTCCTGCCG | 1980
CCCCACATCCGGTGCGGCGACGCCACTTCCGCCCAC | 78100
GTGCCGGGATGTTGCAGCTCTCGGCGAGGAAATGTC | 270
GAGGATATTGCTTCCTGGACAGGAACTGCTTCTCAG | 5440
CGGGTTCCGGTCAAGCCCACAGAGAACCGGAAGTCC | 17100
CATCCTTGGCATTTCCTCTGAGGAAGCTCGCACCCC | 3550
GTTCCCAGGAAGTAGCTTCTTAGGCAGGATGTGGCA | 3930
GTATTTCCTACCAATTGTGACGTCACCCTTCCTCCC | 5550
GCGGTTACTTCCGGTCACTTTCGCCGGAACCTGACT | 86200
TGTGACTTCCTGACGCCCGTCCAGTCCGGAACCTCC | 15700
TAACAGGAAGCATGACTGGGAGGTCTCAGGAAACTT | 2110
GAGGCAGGGCTTCCTGCCCGGCAGGAAGGACTCGGC | 14600
CAGACCCGAGAGGAAATCAGTTTCCCGGACCTTTGA | 1020
CTATGTAGTAAGCGGATACTTCCGGGCCTTGTCTTG | 8930
CAACAGGAAGTCTCATGCGTTGCTGGCGGAACTGCA | 8660

Sequence | ETS1 binding intensity
CTCGCAGGCTTCCCGGCTGCAACTTCCGGCGCATGC | 14600
TCACCAGGAAGCAGAGTTCACCCTGGCGGAAGAGGT | 533
TGCCGGAGGAAGTCCCAGCCTCAGGTTTCCGGGGCT | 941
GGGCATTTCCTCCCTAACTCAATTTCAGGAAGCAGG | 12500
CATTAGCAGTCAGGAAGCTCAGGAAGATTCAAGAGA | 241
GAGCCGTTTCCCTCTGTGCCTCCCTCGGAAACCCGC | 650
AACCCGGAAGCACCGTGGCCGGCGCGCCGGAAATGA | 7740
CTCAACATTCTTCCTGGCCCTGTTTCCTGTGAAATG | 3760
CAACAGGATACCGCCCTTGGTGAGGCTTTCCTGCTA | 991
GACAGGAAGTGCCCTCCTAAAGGCTGCAGGATATGA | 18700
GACTTTGTTTCCTCCATTCTACCAGGAAACAGACCA | 2280
ACAAGAGGAAGCACCAGGGTCAGTCAGGAAGTGGGC | 671
GAGGCGGAAGTGGCGGGCTCTGTGGGCGGAAGGGGC | 8430
TGGGGTCTTCCGGTTGGACCCCTGCTTCCGCTGATT | 24400
GCGCTTCCTGCCCGCCGGGCCGCCGCGTTTCCTGGG | 41500
GTTCAGCTTTCAGGATGTAACATCCCTGTTGCTGGC | 850
TTACTTCCGTTTGTTTAACAGCTGGCCCGGAAGTTT | 35300
GGCAAAAACCCACATCCTCTTCCGCTGGCTCCACCT | 8480
GCTCAGGATGTACCCCCGTGGCTGCGGTTTCCGGCG | 2290
AGAAGGGAAGTGCCAGGGTAAGCAGACAGGAAGTCA | 2240
CCCCAGCCCTGCATCCGCCCGGAAGGCGTCCCCTTA | 6400
CAGCTGACCACATCCTGGGCAGGATGGGGCAGGAGG | 5180
CGCGGTTTCCTTCACCAAGCAGCAATTTCCGTTGGC | 3610
TACCGCCCCGCGCTTCCGCTTCCGGTCTGGGGAGAG | 34500
GATCGAGACCATCCTGGCTAACAGGATGAAACCCCG | 313

Reference: the supplement of paper PMC10681739
